{
  "source": "paper PMC4336329",
  "about": "(PLoS ONE, 2015)",
  "note": "In all, about 310,000 compounds went through this assay and about 2,200 (0.71%) showed an effect of 50% or more. The effect is printed as a negative number. The list shows a part of the results.",
  "data": [
    {"target": "human ether-à-go-go-related gene (hERG) potassium channel (human, UniProt Q12809)", "sequence (Q12809 whole entry, looked up)": "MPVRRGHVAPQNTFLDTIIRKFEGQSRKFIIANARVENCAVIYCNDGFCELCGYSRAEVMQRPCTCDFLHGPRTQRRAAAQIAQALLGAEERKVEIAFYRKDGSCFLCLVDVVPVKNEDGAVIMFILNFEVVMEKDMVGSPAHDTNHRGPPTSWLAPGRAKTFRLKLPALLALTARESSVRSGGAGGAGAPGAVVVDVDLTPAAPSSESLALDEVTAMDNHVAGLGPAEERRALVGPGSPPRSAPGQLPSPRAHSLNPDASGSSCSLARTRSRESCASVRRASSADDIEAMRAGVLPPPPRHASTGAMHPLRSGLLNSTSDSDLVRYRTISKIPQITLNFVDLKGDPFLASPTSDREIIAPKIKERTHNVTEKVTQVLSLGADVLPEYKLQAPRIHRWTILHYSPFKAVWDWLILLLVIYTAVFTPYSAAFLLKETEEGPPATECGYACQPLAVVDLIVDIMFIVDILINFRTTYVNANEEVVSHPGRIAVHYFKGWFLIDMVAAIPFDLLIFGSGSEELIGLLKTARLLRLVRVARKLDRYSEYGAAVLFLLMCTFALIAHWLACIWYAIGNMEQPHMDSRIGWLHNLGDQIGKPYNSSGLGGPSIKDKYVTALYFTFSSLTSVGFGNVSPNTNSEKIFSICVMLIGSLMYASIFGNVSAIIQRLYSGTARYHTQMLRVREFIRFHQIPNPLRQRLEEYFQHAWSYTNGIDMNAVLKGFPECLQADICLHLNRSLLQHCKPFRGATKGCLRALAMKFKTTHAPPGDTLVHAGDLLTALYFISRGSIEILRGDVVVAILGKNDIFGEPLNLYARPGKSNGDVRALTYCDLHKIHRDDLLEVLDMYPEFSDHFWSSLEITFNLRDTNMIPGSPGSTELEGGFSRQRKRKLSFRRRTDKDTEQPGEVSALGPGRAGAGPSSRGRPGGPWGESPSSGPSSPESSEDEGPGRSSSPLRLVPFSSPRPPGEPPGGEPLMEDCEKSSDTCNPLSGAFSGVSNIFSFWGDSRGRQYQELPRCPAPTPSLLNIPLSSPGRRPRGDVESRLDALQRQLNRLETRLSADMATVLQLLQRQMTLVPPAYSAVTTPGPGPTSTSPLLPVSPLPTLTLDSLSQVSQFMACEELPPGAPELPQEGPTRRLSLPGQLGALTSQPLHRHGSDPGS", "assay": "primary screen, population patch clamp on CHO cells stably expressing hERG", "description": "Briefly, Chinese hamster ovary (CHO) cells stably expressing the hERG channel were dislodged from tissue culture flasks and dispensed into PPC plates. […] During the recording, background leak currents were estimated by a 100 ms step to -80 mV from an initial holding potential of -70 mV and subtracted from the subsequent current measurement. The campaign was conducted in two phases using slight differences in recording protocol. In the first phase, the initial voltage pulse used a 100 ms step to -30 mV from a holding potential of -70 mV, a 2 s conditioning step to +25 mV, and a 2 s test step to -30 mV. During the second phase of the screen, the potential during the conditioning step was raised to +45 mV. In both phases of the campaign, a secondary voltage pulse was applied using the same parameters as the second phase initial pulse. The initial and secondary pulses were applied in the absence of compound, and upon application of 1 μM and 10 μM test concentrations. Small molecule effects on hERG current density were quantified by […].", "units": {"hERG current change (%, negative = inhibition) at 1uM": "%"}, "values": [
      {"smiles": "O=C(Nc1cc(Sc2ccccn2)cc([N+](=O)[O-])c1)c1ccc([N+](=O)[O-])cc1", "hERG current change (%, negative = inhibition) at 1uM": 10.7},
      {"smiles": "Cc1cccc(NC(=O)CSc2nnc(NC(=O)C3CC3)s2)c1C", "hERG current change (%, negative = inhibition) at 1uM": 6.99},
      {"smiles": "C=CCOc1c(CNc2ncn[nH]2)cccc1OC", "hERG current change (%, negative = inhibition) at 1uM": 15},
      {"smiles": "COc1ccccc1NC(=O)c1sc2nc(N3CCOCC3)c3c(c2c1N)CCCC3", "hERG current change (%, negative = inhibition) at 1uM": 17.6},
      {"smiles": "COc1ccc(C2CC(c3ccc(F)cc3)n3nc(NC(=O)c4ccco4)nc3N2)cc1", "note": "(stereo not shown)", "hERG current change (%, negative = inhibition) at 1uM": 1.23},
      {"smiles": "CCOC(=O)Cc1csc(NC(=O)CSc2cc(Cl)ccc2Cl)n1.O=C(O)C(=O)O", "hERG current change (%, negative = inhibition) at 1uM": 12.9},
      {"smiles": "CC(=O)Nc1ccc(N/C=C/C(=O)c2ccc(Br)cc2)cc1", "hERG current change (%, negative = inhibition) at 1uM": 12},
      {"smiles": "CN(C(=O)CSc1ncnc2sccc12)C1CCS(=O)(=O)C1", "note": "(stereo not shown)", "hERG current change (%, negative = inhibition) at 1uM": 11.6},
      {"smiles": "CC(C(=O)N1CCc2ccccc21)N1CCN(S(=O)(=O)c2cccs2)CC1", "note": "(stereo not shown)", "hERG current change (%, negative = inhibition) at 1uM": 12.2},
      {"smiles": "COc1cc(C(=O)N2CCN(C(=O)C(Cc3cc(C)ccc3C)NC(C)=O)CC2)cc(OC)c1OC", "note": "(stereo not shown)", "hERG current change (%, negative = inhibition) at 1uM": -8.34},
      {"smiles": "Cn1c(SCC(=O)Nc2nc(C(C)(C)C)cs2)nnc1C1CC1", "hERG current change (%, negative = inhibition) at 1uM": 4.9},
      {"smiles": "C[C@@H](C(=O)NCc1ccc(S(C)(=O)=O)cc1)[C@@H]1C[C@@]1(C)[C@@H](NC(=O)OCc1ccccc1)c1ccccc1", "hERG current change (%, negative = inhibition) at 1uM": -5.47},
      {"smiles": "CCOc1ccc(-c2cc(C(=O)NCC3CCCO3)c3ccccc3n2)cc1", "note": "(stereo not shown)", "hERG current change (%, negative = inhibition) at 1uM": 3.62},
      {"smiles": "Brc1c(CSc2nnc(-c3ccco3)o2)nc2ccccn12", "hERG current change (%, negative = inhibition) at 1uM": -11.5},
      {"smiles": "Cc1nn(-c2ccccc2)c(N2CCCC2)c1/C=N/NC(=O)c1cc(-c2ccccc2)nc2ccccc12", "hERG current change (%, negative = inhibition) at 1uM": 4.69},
      {"smiles": "O=C(COC(=O)c1ccco1)c1ccc(F)cc1", "hERG current change (%, negative = inhibition) at 1uM": 10.3},
      {"smiles": "CCC(C)CNC(=O)c1cccc(OC2CCN(CC(C)(C)C)CC2)c1", "note": "(stereo not shown)", "hERG current change (%, negative = inhibition) at 1uM": 10.3},
      {"smiles": "CC(=O)c1c(C)n(-c2ccccc2)c2ccc(OCC(N)=O)cc12", "hERG current change (%, negative = inhibition) at 1uM": 16.9},
      {"smiles": "Cc1ccccc1CSc1nnc(C)c(=O)n1N", "hERG current change (%, negative = inhibition) at 1uM": 12.7},
      {"smiles": "NS(=O)(=O)c1ccc(CCNC(=O)CSc2nc3ccccc3c(=O)n2CC2CCCO2)cc1", "note": "(stereo not shown)", "hERG current change (%, negative = inhibition) at 1uM": -2.27},
      {"smiles": "COc1ccc(NC(=O)C2CC(c3ccc(Cl)cc3)=NO2)cc1", "note": "(stereo not shown)", "hERG current change (%, negative = inhibition) at 1uM": 7.77},
      {"smiles": "Cc1ccc(C(=O)NCCSc2ccc(Cl)cc2)cc1[N+](=O)[O-]", "hERG current change (%, negative = inhibition) at 1uM": -1.08},
      {"smiles": "O=C(NCc1ccccc1)N1CCC(Cc2ccccc2)CC1", "hERG current change (%, negative = inhibition) at 1uM": 13.8},
      {"smiles": "CCNC(=O)c1cc2c(=O)n3cccc(C)c3nc2n(Cc2ccc(C)cc2)c1=N", "hERG current change (%, negative = inhibition) at 1uM": -97.1},
      {"smiles": "C=C(C)Cn1c(CCNC(=O)C(C)C)nc2ccccc21", "hERG current change (%, negative = inhibition) at 1uM": 3.04},
      {"smiles": "COCCn1c(SCC(=O)Nc2ccccc2)nc2c1c(=O)[nH]c(=O)n2C", "hERG current change (%, negative = inhibition) at 1uM": 4.36},
      {"smiles": "COCCN(C(=S)Nc1cc(C)cc(C)c1)C(C)c1ccco1", "note": "(stereo not shown)", "hERG current change (%, negative = inhibition) at 1uM": 8.78},
      {"smiles": "Cc1ccc(NC(=O)C(c2ccccc2)N2CCN(CC(=O)NC3CC3)CC2)cc1", "note": "(stereo not shown)", "hERG current change (%, negative = inhibition) at 1uM": 5.77},
      {"smiles": "CNc1ccccc1NC(=O)CCn1c(=S)oc2ccccc21", "hERG current change (%, negative = inhibition) at 1uM": 7.44},
      {"smiles": "O=C(N/N=C/c1ccccc1)C(O)c1ccccc1", "note": "(stereo not shown)", "hERG current change (%, negative = inhibition) at 1uM": 14.8},
      {"smiles": "O=S(=O)(NCc1cccnc1)c1ccc(Cl)cc1", "hERG current change (%, negative = inhibition) at 1uM": 7.59},
      {"smiles": "COc1ccc(N2CCN(c3ccc(N)cc3C#N)CC2)cc1", "hERG current change (%, negative = inhibition) at 1uM": 2.25},
      {"smiles": "Cc1cccnc1NC(=O)c1ccccc1-c1ccccc1C(=O)Nc1ncccc1C", "hERG current change (%, negative = inhibition) at 1uM": -15.9},
      {"smiles": "O=C(c1ccccc1-c1nc(-c2ccccc2)no1)N1CCCC1", "hERG current change (%, negative = inhibition) at 1uM": 3.39},
      {"smiles": "O=C(Nc1cc(S(=O)(=O)N2CCOCC2)ccc1N1CCCC1)c1cc(=O)[nH]c2ccccc12", "hERG current change (%, negative = inhibition) at 1uM": 9.3},
      {"smiles": "CC1CN(c2ncnc3c2oc2ccccc23)CC(C)O1.Cl", "note": "(stereo not shown)", "hERG current change (%, negative = inhibition) at 1uM": 12.3},
      {"smiles": "O=S1(=O)CCC(N=Cc2ccc(-c3ccc(Cl)cc3)o2)C1", "note": "(stereo not shown)", "hERG current change (%, negative = inhibition) at 1uM": 6.29},
      {"smiles": "COc1cccc(Nc2nc(C)cc(C)c2C#N)c1", "hERG current change (%, negative = inhibition) at 1uM": 14.2},
      {"smiles": "Cc1cccc(-n2c(SCC(=O)Nc3ccc4c(c3)OCO4)nnc2-c2ccoc2C)c1", "hERG current change (%, negative = inhibition) at 1uM": 3.48},
      {"smiles": "CCOc1cc(C2C(C(C)=O)=C(C)Nc3ncnn32)ccc1O", "note": "(stereo not shown)", "hERG current change (%, negative = inhibition) at 1uM": 13.5},
      {"smiles": "O=[N+]([O-])c1ccc(O)c(CSc2nnnn2-c2ccccc2)c1", "hERG current change (%, negative = inhibition) at 1uM": 16.3},
      {"smiles": "Cc1ccc(NS(=O)(=O)N2CCOCC2)cc1", "hERG current change (%, negative = inhibition) at 1uM": 19.1},
      {"smiles": "COc1ccccc1CN1CCN(C(=O)Cc2ccccc2)CC1", "hERG current change (%, negative = inhibition) at 1uM": 3.58}
    ]}
  ]
}
